Laboratory results as given in PubChem BioAssay AID886 (National Center for Advancing Translational Sciences (NCATS), 2007).
Where “and” joins values, the source holds several entries; their conditions need not be identical. Equal values may be shown once. Among all 73,000 compounds or so, about 2,500 (3.4%) were called active. Inconclusive means that the source gave no clear call. Such entries were picked first, then a sample of the others. Calls follow the shape of the dose curve; as a rule, active = well fitted inhibition curve with a large enough effect; inconclusive = small, poorly fitted or top-dose-only effect; inactive = no such curve, though single readings can be large or run the other way. Potencies of inconclusive entries are doubtful fits and often do not repeat.

Molecular target: 3-hydroxyacyl-CoA dehydrogenase type-2 (Homo sapiens) (UniProt Q99714)
UniProt Q99714, sequence (Q99714 whole entry, looked up): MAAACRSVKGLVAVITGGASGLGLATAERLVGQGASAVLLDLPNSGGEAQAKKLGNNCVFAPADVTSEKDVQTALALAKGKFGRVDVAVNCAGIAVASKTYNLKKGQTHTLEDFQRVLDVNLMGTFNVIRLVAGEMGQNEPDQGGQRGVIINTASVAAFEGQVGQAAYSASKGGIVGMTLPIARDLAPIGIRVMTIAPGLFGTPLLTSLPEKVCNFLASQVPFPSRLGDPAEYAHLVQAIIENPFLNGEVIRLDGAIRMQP
UniProt Q99714, sequence (Q99714 whole entry, looked up): as above
Experiment: qHTS Assay for Inhibitors of HADH2 (Hydroxyacyl-Coenzyme A Dehydrogenase, Type II); also: nearly all actives have a fitted effect of over 60% in size
Settings: recombinant HADH2, NADH fluorescence, beta-hydroxybutyryl-CoA; activity change, negative = inhibition: at 57.1 µM (top of the series)
Summary of the method: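 His-tagged recombinant enzyme from E. coli, 20 nM, preincubated 15 min RT with compound; reaction started with 1 mM NAD+ and 90 uM beta-hydroxybutyryl-CoA in 100 mM Tris-HCl pH 9.0. NADH fluorescence (ex 360/em 450) read over 4 min; last-minus-first difference.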
% is scaled to controls: 0 for no effect and ±100 for the full control effect; potency is read from the fitted curve at half-maximal effect; tags tell the direction and shape of the fitted curve.

| SMILES | Potency | activity change, negative = inhibition |
| --- | --- | --- |
| CCc1nc(Nc2ccncc2)c2oc3ccccc3c2n1 | inconclusive: 25.1 µM [inhibitor, single point] |  |
| CN(CCc1ccc(Cl)c(Cl)c1)CCN1CCCC1 | inactive |  |
| CCOc1cc2[nH]c(=O)n(CC3CCC(C(=O)NCCC(C)C)CC3)c(=O)c2cc1OCC (stereo unspecified) | inactive |  |
| O=c1nc2scc(-c3ccccc3)n2c2ccccc12 | inconclusive: 3.98 µM [inhibitor, single point] |  |
| COc1cc(Cc2cnc(N)nc2N)cc(OC)c1OC | inconclusive: 0.0063 µM [inhibitor, full curve, poor fit] |  |
| Nc1nnnn1/N=C/c1ccccc1C(F)(F)F | inconclusive: 39.8 µM [inhibitor, single point] |  |
| C(=N\c1nccs1)/c1cccnc1 | inconclusive: 31.6 µM [inhibitor, single point] |  |
| CCCCCCC(C)n1[nH]c(=O)c2c(C)cc(=O)[nH]c21 (stereo unspecified) | inconclusive: 6.31 µM [inhibitor, single point] |  |
| CCOc1ccccc1N1C(=O)CC(Sc2ncccc2C(=O)O)C1=O (stereo unspecified) | inconclusive: 12.6 µM [inhibitor, partial curve] |  |
| Cc1ccc(O)c(N)c1 | inconclusive: 3.16 µM [inhibitor, full curve] |  |
| CN(C)C(=O)c1ccc(-c2nc(Nc3ccncc3)c3ccccc3n2)cc1 | inactive |  |
| Cc1sc2ccccc2[n+]1CCC(=O)O | active: 0.794 µM |  |
| c1coc(-c2ncc[nH]2)c1 | inactive |  |
| N#Cc1nc(-c2ccccc2F)oc1NCCN1CCOCC1 | active: 31.6 µM |  |
| O=C(CSc1nnc(-c2cccs2)n1-c1ccccc1)c1ccc2c(c1)OCCO2 | inconclusive: 1 µM [inhibitor, single point] |  |
| COc1cc(/C=N\n2nnnc2N)ccc1OCc1ccc(F)cc1 | inconclusive: 31.6 µM [inhibitor, single point] |  |
| O=C(c1cccs1)N(CC1CCCO1)c1nc(-c2ccccc2)cs1 (stereo unspecified) | inconclusive: 39.8 µM [inhibitor, single point] |  |
| CCOc1ccc(-c2cc(C(=O)N3CCN(C)CC3)c3ccccc3n2)cc1 | inactive |  |
| COc1cc(OC)c(-c2nn3c(-c4cccnc4)nnc3s2)cc1OC | inactive |  |
| CCCCOc1ccc(C(=O)N2CCCCCC2)cc1 | inactive |  |
| CN(C)CCC(=O)c1ccc2c(c1)OCO2 | inconclusive: 2.51 µM [inhibitor, full curve, poor fit] |  |
| CCOC(=O)N1CCN(C(=O)CSc2nnc(-c3cc(OC)ccc3OC)o2)CC1 | inconclusive: 39.8 µM [inhibitor, single point] |  |
| Cc1cccc(Nc2nc(N)nc(CN3CCN(c4ccccc4F)CC3)n2)c1 | inconclusive: 3.98 µM [inhibitor, single point] |  |

| SMILES | Potency | activity change, negative = inhibition |
| --- | --- | --- |
| N#CC1=C(N)Oc2nc(-c3ccccc3)[nH]c2C1c1cccnc1 (stereo unspecified) | inconclusive: 15.8 µM [inhibitor, partial curve] |  |
| Cc1ccc2c(c1)NC(=O)C(CC(=O)NCCCN1CCCCC1C)O2 (stereo unspecified) | inconclusive: 15.8 µM [inhibitor, partial curve] |  |
| COc1cc(-c2ccc(N=Nc3ccc4c(S(=O)(=O)O)cc(S(=O)(=O)O)c(N)c4c3O)c(OC)c2)ccc1N=Nc1ccc2c(S(=O)(=O)O)cc(S(=O)(=O)O)c(N)c2c1O | active: 12.6 µM and active: 10 µM |  |
| CC(=O)N1CCN(c2ccc(NCc3cccs3)cc2)CC1 | inactive |  |
| CN(C)C(=O)c1ccc(-c2cncnc2-n2ccnc2)cc1 | inconclusive: 25.1 µM [inhibitor, partial curve] |  |
| CS(=O)(=O)N(CC(=O)N1CCCCCC1)c1ccc2c(c1)OCCO2 | inconclusive: 3.16 µM [inhibitor, full curve] |  |
| N=C1C(c2ccc(Br)cc2)=C(O)C2CCc3ccccc3N12 (stereo unspecified) | inactive |  |
| O=c1[nH]c(SCc2ccccc2Cl)nc2c1cnn2-c1ccccc1 | inactive |  |
| COc1ccc(CN2C(=O)c3cccnc3C2Nc2ccc(OC)c(Cl)c2)cc1 (stereo unspecified) | inconclusive: 31.6 µM [inhibitor, single point] |  |
| O=C1[C@H]2[C@H]3[C@H](O)[C@H](O)C/C(=N/OC[C@@H](O)COCc4ccco4)[C@@H]3CC[C@@H]2C(=O)N1Cc1ccc2c(c1)OCO2 |  | inactive: -1.24% [at 11.4 µM] |
| CC(=O)Oc1cccc(N2C(=O)C3C(C2=O)C2C=CC3C23CC3)c1 (stereo unspecified) | inactive |  |
| COc1ccc2[nH]c(=O)c(CN(Cc3ccccc3)Cc3nnnn3CC3CCCO3)cc2c1 (stereo unspecified) | inconclusive: 39.8 µM [inhibitor, single point] |  |
| COC(=O)[C@@]1(Cc2ccccc2)[C@H]2c3cc(C(=O)N(C)C)n(CCN4CNCC4=O)c3C[C@H]2CN1C(=O)c1ccccc1 | inactive |  |
| CSC1=N/C(=C\C=C\c2cccs2)C(=O)S1 | inconclusive: 31.6 µM [inhibitor, single point] |  |
| NS(=O)(=O)c1cccc2c1c([N+](=O)[O-])cc1nc(O)c(O)nc12 | inconclusive: 20 µM [inhibitor, partial curve] and inconclusive: 631 nM [inhibitor, full curve] |  |
| COC(=O)C1CCN(c2cc(=O)n(-c3ccc(OC)cc3)c(=O)[nH]2)CC1 | inconclusive: 25.1 µM [inhibitor, partial curve] |  |
| Cc1ccc(/C=C/C2=Cc3c(sc(NC(=O)CSc4n[nH]c(N)n4)c3C#N)C(C)(C)C2)o1 | active: 20 µM |  |
| CCCCCCCCCCCCCCCCCCNC(=O)OC[C@@H](COP(=O)([O-])OCC[n+]1ccsc1)OC | inactive |  |
| O=C1C=CC2=C3c4cc(O)c(O)cc4C[C@@]3(O)COC2=C1O | active: 0.126 µM |  |
| O=c1oc2c(CN3CCOCC3)c(O)c(Cl)cc2c2c1CCCC2 | inconclusive: 3.98 µM [inhibitor, single point] |  |
| Cn1c(=O)c2c(nc(SCC(=O)NC3CCCCC3)n2C)n(C)c1=O | inactive |  |
| CN1CCc2c(sc3c2C(=O)NC(c2ccc(-c4cccc(Cl)c4)o2)N3)C1 (stereo unspecified) | active: 25.1 µM |  |
| N#CC(=C(/N)Sc1ccccc1N)/C(C#N)=C(/N)Sc1ccccc1N | inconclusive: 2.51 µM [inhibitor, full curve] and inconclusive: 1.58 µM [inhibitor, full curve] |  |
